# Assay results from PubChem BioAssay AID624296 (National Center for Advancing Translational Sciences (NCATS), 2012).
# Hit rate of the full screen: of about 350,000 compounds, about 9,900 (2.8%) were called active. The inconclusive results got no clear call from the source; some entries with a clear call stand among them for comparison. Calls come from the whole dose curve; as a rule, active = well fitted activation curve with a large enough effect; inconclusive = small, poorly fitted or top-dose-only effect; inactive = no such curve, though single readings can be large or run the other way. Potencies of inconclusive entries are left out as doubtful fits.
# Experiment: A quantitative high throughput screen for small molecules that induce DNA re-replication in MCF 10a normal breast cells. Note: nearly all actives have a fitted effect of over 50% in size.
# Conditions: MCF 10A DNA re-replication, Hoechst nuclear intensity, 48 h; series mostly up to 46.1 µM
# Potency is the fitted concentration of half-maximal effect; tags give direction and shape of the fitted curve.
row,Structure (SMILES),Potency
1,CC1(C)CC(=O)C=C(N2CCOCC2)C1,"inconclusive [activator, single point]"
2,O=S(=O)(CC(CN1CCCCC1)N1CCCCC1)c1ccccc1 (centres undefined),active: 6.51 µM
3,Cc1oc(-c2ccccc2Cl)nc1CSc1nc2c(c(=O)[nH]1)CCCC2,inactive
4,CCCC(=O)Nc1c2c(nc3ccccc13)N(c1ccccc1)CC2,"inconclusive [activator, single point]"
5,O=C(COC(=O)c1cc([N+](=O)[O-])ccc1N1CCOCC1)NCc1ccc(F)cc1,"inconclusive [activator, single point]"
6,CN(CCC#N)S(=O)(=O)c1ccc2[nH]cc(C(=O)NCCc3ccccc3)c(=O)c2c1,"inconclusive [activator, full curve, poor fit]"
7,N#CNC(=Nc1cccc(C(F)(F)F)c1)SCc1ccc(C(=O)O)cc1,"inconclusive [activator, single point]"
8,O=C1c2ccccc2C(=O)N1Cc1cnc(N2CCN(c3ccccc3)CC2)s1,"inconclusive [activator, single point]"
9,Cc1ccc(/C=N/N=C/c2ccc(C)s2)s1,inactive
10,Cc1ccccc1Nc1nnc(SCc2cc([N+](=O)[O-])cc3c2OCOC3)s1,"inconclusive [activator, partial curve, poor fit]"
11,O=C(c1ccccc1)c1coc2ccc(O)c(Cl)c12,inactive
12,CC(C)n1cc(CN2CCC(C(=O)Nc3cccc(-c4cccc(Cl)c4)c3)CC2)cn1,active: 18.4 µM
13,CC(NC(=O)NNC(N)=S)(C(F)(F)F)C(F)(F)F,inactive
14,C[C@H]1CN([C@@H](C)CO)C(=O)Cc2cc(NC(=O)CCC(F)(F)F)ccc2O[C@H]1CN(C)C(=O)Nc1ccc(F)cc1,inactive
15,O=C(NCc1cc([N+](=O)[O-])ccc1O)c1cc(-c2ccncc2)nc2ccccc12,"inconclusive [activator, single point]"
16,COc1cc(NC(=O)COc2cccc3c2OC(C)(C)C3)cc(OC)c1OC,inactive
17,O=C(Nc1ccc(N2CCOCC2)cc1)c1ccc(Cl)cc1N1CCCC1=O,"inconclusive [activator, single point]"
18,CCOc1ccc(S(=O)(=O)NCc2ccc(Cl)cc2)c2cccnc12,"inconclusive [activator, partial curve, poor fit]"
19,COc1ccccc1OCC(=O)NN=C(Cc1ccccc1)Cc1ccccc1,"inconclusive [activator, single point]"
